Changes are numbered by the printed parent chain; changes in the protein carry UniProt numbers. Some of the results follow.
T1: RBFOX1 RRM (Homo sapiens, UniProt Q9NWB1 109-208)
T1 sequence: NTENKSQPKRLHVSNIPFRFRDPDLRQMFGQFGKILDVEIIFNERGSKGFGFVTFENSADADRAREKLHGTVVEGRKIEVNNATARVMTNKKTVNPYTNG

B1: UAUCGGG (DNA:RNA)
RNA: GGGAGACCGGAAUUCAGAUUGUCCUAUCGGGUUAAAUCCCGUCGUAGCCACCA
DNA 1: CAATCTGAATTCCGGTCTCCC
DNA 2: TGGTGGCTACGACGGGATT
B2: CAAGAAU (DNA:RNA)
RNA: B1 RNA with U25C, U27A, C28G, G29A, G30A, G31U
DNA 1: CAATCTGAATTCCGGTCTCCC
DNA 2: TGGTGGCTACGACGGGATT
B3: GUGUGCC (DNA:RNA)
RNA: B1 RNA with U25G, A26U, U27G, C28U, G30C, G31C
DNA 1: CAATCTGAATTCCGGTCTCCC
DNA 2: TGGTGGCTACGACGGGATT
B4: AUACUCA (DNA:RNA)
RNA: B1 RNA with U25A, A26U, U27A, G29U, G30C, G31A
DNA 1: CAATCTGAATTCCGGTCTCCC
DNA 2: TGGTGGCTACGACGGGATT
B5: ACGCCUA (DNA:RNA)
RNA: B1 RNA with U25A, A26C, U27G, G29C, G30U, G31A
DNA 1: CAATCTGAATTCCGGTCTCCC
DNA 2: TGGTGGCTACGACGGGATT
B6: AAAAUUU (DNA:RNA)
RNA: B1 RNA with U25A, U27A, C28A, G29U, G30U, G31U
DNA 1: CAATCTGAATTCCGGTCTCCC
DNA 2: TGGTGGCTACGACGGGATT
B7: GGGAGUU (DNA:RNA)
RNA: B1 RNA with U25G, A26G, U27G, C28A, G30U, G31U
DNA 1: CAATCTGAATTCCGGTCTCCC
DNA 2: TGGTGGCTACGACGGGATT
B8: CGUAUUU (DNA:RNA)
RNA: B1 RNA with U25C, A26G, C28A, G29U, G30U, G31U
DNA 1: CAATCTGAATTCCGGTCTCCC
DNA 2: TGGTGGCTACGACGGGATT
B9: CAAUGGG (DNA:RNA)
RNA: B1 RNA with U25C, U27A, C28U
DNA 1: CAATCTGAATTCCGGTCTCCC
DNA 2: TGGTGGCTACGACGGGATT
B10: CUACAUU (DNA:RNA)
RNA: B1 RNA with U25C, A26U, U27A, G29A, G30U, G31U
DNA 1: CAATCTGAATTCCGGTCTCCC
DNA 2: TGGTGGCTACGACGGGATT
B11: GUCGUUG (DNA:RNA)
RNA: B1 RNA with U25G, A26U, U27C, C28G, G29U, G30U
DNA 1: CAATCTGAATTCCGGTCTCCC
DNA 2: TGGTGGCTACGACGGGATT
B12: CUUUCAG (DNA:RNA)
RNA: B1 RNA with U25C, A26U, C28U, G29C, G30A
DNA 1: CAATCTGAATTCCGGTCTCCC
DNA 2: TGGTGGCTACGACGGGATT
B13: CUUCGUC (DNA:RNA)
RNA: B1 RNA with U25C, A26U, G30U, G31C
DNA 1: CAATCTGAATTCCGGTCTCCC
DNA 2: TGGTGGCTACGACGGGATT
B14: CAGGAGC (DNA:RNA)
RNA: B1 RNA with U25C, U27G, C28G, G29A, G31C
DNA 1: CAATCTGAATTCCGGTCTCCC
DNA 2: TGGTGGCTACGACGGGATT
B15: CGGCGUU (DNA:RNA)
RNA: B1 RNA with U25C, A26G, U27G, G30U, G31U
DNA 1: CAATCTGAATTCCGGTCTCCC
DNA 2: TGGTGGCTACGACGGGATT
B16: UCCGUGA (DNA:RNA)
RNA: B1 RNA with A26C, U27C, C28G, G29U, G31A
DNA 1: CAATCTGAATTCCGGTCTCCC
DNA 2: TGGTGGCTACGACGGGATT
B17: UACAGUA (DNA:RNA)
RNA: B1 RNA with U27C, C28A, G30U, G31A
DNA 1: CAATCTGAATTCCGGTCTCCC
DNA 2: TGGTGGCTACGACGGGATT
B18: GUAUUUA (DNA:RNA)
RNA: GGGAGACCGGAAUUCAGAUUGUCCGUAUUUAUUAAAUCCCGUCGUAGCCACCA
DNA 1: CAATCTGAATTCCGGTCTCCC
DNA 2: TGGTGGCTACGACGGGATT
B19: UACCGAC (DNA:RNA)
RNA: B1 RNA with U27C, G30A, G31C
DNA 1: CAATCTGAATTCCGGTCTCCC
DNA 2: TGGTGGCTACGACGGGATT
B20: GCACAGU (DNA:RNA)
RNA: B18 RNA with U26C, U28C, U29A, U30G, A31U
DNA 1: CAATCTGAATTCCGGTCTCCC
DNA 2: TGGTGGCTACGACGGGATT
B21: CAAACGA (DNA:RNA)
RNA: B18 RNA with G25C, U26A, U28A, U29C, U30G
DNA 1: CAATCTGAATTCCGGTCTCCC
DNA 2: TGGTGGCTACGACGGGATT
B22: GAGGAUC (DNA:RNA)
RNA: B18 RNA with U26A, A27G, U28G, U29A, A31C
DNA 1: CAATCTGAATTCCGGTCTCCC
DNA 2: TGGTGGCTACGACGGGATT
B23: AACUAAA (DNA:RNA)
RNA: B18 RNA with G25A, U26A, A27C, U29A, U30A
DNA 1: CAATCTGAATTCCGGTCTCCC
DNA 2: TGGTGGCTACGACGGGATT
B24: AUUCAAA (DNA:RNA)
RNA: B18 RNA with G25A, A27U, U28C, U29A, U30A
DNA 1: CAATCTGAATTCCGGTCTCCC
DNA 2: TGGTGGCTACGACGGGATT
B25: CACGGUA (DNA:RNA)
RNA: B18 RNA with G25C, U26A, A27C, U28G, U29G
DNA 1: CAATCTGAATTCCGGTCTCCC
DNA 2: TGGTGGCTACGACGGGATT
B26: GGGCGAU (DNA:RNA)
RNA: B1 RNA with U25G, A26G, U27G, G30A, G31U
DNA 1: CAATCTGAATTCCGGTCTCCC
DNA 2: TGGTGGCTACGACGGGATT
B27: UCCAGUA (DNA:RNA)
RNA: B18 RNA with G25U, U26C, A27C, U28A, U29G
DNA 1: CAATCTGAATTCCGGTCTCCC
DNA 2: TGGTGGCTACGACGGGATT
B28: CCCAAGU (DNA:RNA)
RNA: B1 RNA with U25C, A26C, U27C, C28A, G29A, G31U
DNA 1: CAATCTGAATTCCGGTCTCCC
DNA 2: TGGTGGCTACGACGGGATT
B29: ACUUCGG (DNA:RNA)
RNA: B1 RNA with U25A, A26C, C28U, G29C
DNA 1: CAATCTGAATTCCGGTCTCCC
DNA 2: TGGTGGCTACGACGGGATT
B30: UCUAGGU (DNA:RNA)
RNA: B1 RNA with A26C, C28A, G31U
DNA 1: CAATCTGAATTCCGGTCTCCC
DNA 2: TGGTGGCTACGACGGGATT
B31: ACCGGCU (DNA:RNA)
RNA: B1 RNA with U25A, A26C, U27C, C28G, G30C, G31U
DNA 1: CAATCTGAATTCCGGTCTCCC
DNA 2: TGGTGGCTACGACGGGATT

Each binder was assayed against T1, RBFOX1 RRM (assay: EMSA; HiTS-Eq, 1 nM pool, 10 min; buffer printed only for the single-RNA assays: 10 mM Tris pH 7.5, 150 mM NaCl, 3.4 mM EDTA, 0.001% NP-40, 30 C). Settings: tags: His6 N-terminal (pET28a); label: 5' 32P.
Outline: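 Purified wild-type or mutant RbFox RRM at increasing concentrations was equilibrated with 1 nM of 5′-radiolabelled RNA carrying 7 randomized nucleotides for 10 min in 50 µL. Unbound RNA was separated by 8% native PAGE and sequenced. Relative association constants came from read-count changes of each RNA species compared with the control reaction, normalised to the cognate motif.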
In the case of B1, the binding signal is reported as 0.00336 KA relative to UGCAUGU. For B2, the binding signal was 0.00351 KA relative to UGCAUGU. B3 was tested, and the binding signal was 0.0136 KA relative to UGCAUGU. B4 was tested, and the binding signal was 0.00119 KA relative to UGCAUGU. B5 was tested, and the binding signal was 0.00104 KA relative to UGCAUGU. With B6 the binding signal was 0.00108 KA relative to UGCAUGU. B7 was tested, and the binding signal was 0.0324 KA relative to UGCAUGU. B8 was tested, and the binding signal was 0.00693 KA relative to UGCAUGU. In the case of B9, the binding signal is reported as 0.00655 KA relative to UGCAUGU. B10 was tested, and the binding signal was 0.00206 KA relative to UGCAUGU. With B11 the binding signal was 0.0222 KA relative to UGCAUGU. For B12, the binding signal was 0.0157 KA relative to UGCAUGU. For B13, the binding signal was 0.0122 KA relative to UGCAUGU. For B14, the binding signal was 0.0107 KA relative to UGCAUGU. B15 was tested, and the binding signal was 0.0162 KA relative to UGCAUGU. With B16 the binding signal was 0.00906 KA relative to UGCAUGU. B17 was tested, and the binding signal was 0.00635 KA relative to UGCAUGU. In the case of B18, the binding signal is reported as 0.00582 KA relative to UGCAUGU. For B19, the binding signal was 0.00679 KA relative to UGCAUGU. For B20, the binding signal was 0.00714 KA relative to UGCAUGU. In the case of B21, the binding signal is reported as 0.0029 KA relative to UGCAUGU. B22 was tested, and the binding signal was 0.0149 KA relative to UGCAUGU. In the case of B23, the binding signal is reported as 0.000329 KA relative to UGCAUGU. B24 was tested, and the binding signal was 0.00245 KA relative to UGCAUGU. In the case of B25, the binding signal is reported as 0.00693 KA relative to UGCAUGU. In the case of B26, the binding signal is reported as 0.0127 KA relative to UGCAUGU. For B27, the binding signal was 0.0094 KA relative to UGCAUGU. B28 was tested, and the binding signal was 0.0129 KA relative to UGCAUGU. B29 was tested, and the binding signal was 0.00412 KA relative to UGCAUGU. B30 was tested, and the binding signal was 0.0107 KA relative to UGCAUGU. For B31, the binding signal was 0.00698 KA relative to UGCAUGU.

From publication PMC9911399, “Two distinct binding modes provide the RNA-binding protein RbFox with extraordinary sequence specificity”
